Laboratory results reported in the supplement of paper PMC12217912.
The other results are listed elsewhere or left out. The full chains were built here from the parent and the listed change. Inactive controls read about 0.05.

B1: TEV protease; numbered along this chain (parent)
chain: MGESLFKGPRDYNPISSSICHLTNESDGHTTSLYGIGFGPFIITNKHLFRRNNGTLVVQSLHGVFKVKDTTTLQQHLVDGRDMIIIRMPKDFPPFPQKLKFREPQREERICLVTTNFQTKSMSSMVSDTSCTFPSGDGIFWKHWIQTKDGQCGSPLVSTRDGFIVGIHSASNFTNTNNYFTSVPKNFMELLTNQEAQQWVSGWRLNADSVLWGGHKVFMVKPEEPFQPVKEATQL

Variants of: B1
Test: raw area under fraction-flipped curve 0-4 h after induction (AUC4h, not background-subtracted), DNA-recorder readout of cleavage of the substrate (dimensionless); higher = more cleavage of the substrate by the protease variant
Conditions: temperature: 34 °C; time window: 0-4 h after rhamnose induction
Procedure: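 In vivo DNA recorder in E. coli TOP10(DE3) ΔrhaA at 34 °C. Each TEVp single-site mutant (parent TEVp 0) is paired with a single-site variant of the 7-mer TEVs (canonical ENLYFQ|S). The substrate sits between flexible linkers in a Bxb1-sfGFP-TEVs-SsrA fusion, so cleavage stabilises Bxb1 and speeds flipping of a recombination array, read by NGS. The value is the raw area under the fraction-flipped curve over 0-4 h after rhamnose induction (AUC4h), with ≥20 reads per time point. It is not background-subtracted; inactive controls average about 0.047.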
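Note: Bxb1 expression induced with 0.2% (w/v) L-rhamnose at OD600 near 0.5, cultures sampled hourly, flipped fraction per protease–substrate barcode pair counted by paired-end Illumina sequencing.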

Variant	area with substrate ENLAFQS	area with substrate ENLCFQS	area with substrate ENLEFQS	area with substrate ENLFFQS	area with substrate ENLHFQS	area with substrate ENLIFQS	area with substrate ENLKFQS	area with substrate ENLMFQS	area with substrate ENLNFQS	area with substrate ENLPFQS	area with substrate ENLQFQS	area with substrate ENLSFQS	area with substrate ENLTFQS	area with substrate ENLVFQS	area with substrate ENLRFQS	area with substrate ENLDFQS	area with substrate ENLGFQS	area with substrate ENLLFQS	area with substrate ENLWFQS
G2P	0.0771	0.0769	0.0604	0.0997	0.0744	0.093	0.0933	0.0678	0.0549	0.068	0.0854	0.0647	0.0927	0.0962	–	–	–	–	–
E3K	0.0703	0.0795	–	0.101	–	0.109	–	–	0.0676	0.0444	–	–	–	0.068	0.0802	–	–	–	–
L5G	0.0622	0.092	0.0709	0.0825	0.0673	0.0682	0.0755	0.0723	0.0411	–	0.0583	0.071	–	0.0688	0.072	0.0704	0.081	0.0741	0.0416
L5S	0.0658	0.0657	–	0.114	0.0406	–	–	–	0.0361	0.0575	0.0759	–	–	–	–	0.0601	–	0.0657	–
F6C	0.0835	–	–	–	–	–	–	–	0.058	–	0.068	–	–	0.0709	–	0.056	–	–	–
F6E	0.0531	–	–	0.0856	–	–	0.0671	0.0716	–	–	–	–	–	–	0.0551	–	–	0.0884	–
K7C	0.0483	–	0.0666	–	0.0651	–	0.067	–	0.0606	–	–	0.0457	–	0.0764	0.0676	–	–	–	–
K7M	0.0547	–	–	0.0785	–	–	0.0851	–	0.0765	–	–	0.0752	–	–	–	0.0684	–	0.0677	–
G8H	0.0769	–	–	–	–	0.0857	–	0.0773	–	0.0665	–	0.0316	0.0647	–	–	–	–	–	–
P9D	0.0627	–	–	–	–	–	0.0558	–	–	–	–	–	–	–	0.0724	0.0655	0.0714	–	–
P9E	0.0526	0.0713	–	0.0745	0.0562	–	0.0771	–	0.0453	–	0.0598	0.0675	–	–	0.0701	0.0623	–	–	0.067
P9S	0.0699	–	–	0.0659	0.0667	0.0964	–	–	0.0701	0.0363	–	0.0782	–	–	0.0698	0.0692	–	0.0564	0.0577
R10A	0.0693	0.0771	–	0.091	–	0.0918	0.0645	–	0.0475	0.0434	–	0.0548	–	–	0.057	0.0851	–	0.0734	–
P14F	0.0651	–	0.0724	0.0814	–	–	0.0758	–	0.0459	0.0708	0.0631	0.0601	0.0648	–	0.0587	0.0682	–	–	0.0053
S18D	0.0603	–	–	–	0.0547	–	0.071	–	0.0608	–	0.0575	0.0495	–	0.0907	–	0.048	–	0.0556	0.0644
I19D	0.0476	0.0559	0.0515	0.0558	0.0461	0.0559	0.045	–	0.0457	0.0227	0.0262	0.0258	–	0.0433	0.0555	0.0514	–	0.0458	0.046

Variant	area with substrate ENLAFQS	area with substrate ENLCFQS	area with substrate ENLEFQS	area with substrate ENLFFQS	area with substrate ENLHFQS	area with substrate ENLIFQS	area with substrate ENLKFQS	area with substrate ENLMFQS	area with substrate ENLNFQS	area with substrate ENLPFQS	area with substrate ENLQFQS	area with substrate ENLSFQS	area with substrate ENLTFQS	area with substrate ENLVFQS	area with substrate ENLRFQS	area with substrate ENLDFQS	area with substrate ENLGFQS	area with substrate ENLLFQS	area with substrate ENLWFQS
C20I	0.0591	–	0.0279	0.0723	0.0823	–	0.0776	–	0.066	0.07	0.0723	0.0553	–	0.0839	0.072	0.0578	0.067	0.0762	–
N24I	0.06	0.07	0.0825	0.0678	0.064	0.072	0.0654	–	0.0678	0.0609	0.0586	0.0887	–	–	0.0683	0.0622	–	0.0602	0.0462
S26I	0.0536	0.0534	0.0459	0.0735	–	0.0529	0.071	–	0.0684	0.0592	0.0627	–	–	0.0569	–	0.065	–	–	0.0529
D27I	0.0539	–	0.0633	0.068	0.0641	0.0657	0.0626	0.0393	–	0.0547	–	0.063	–	–	0.0643	0.0493	0.0617	–	0.0715
T30H	0.0689	–	0.0687	0.0835	0.0673	0.0898	0.0785	–	0.0573	0.0631	0.0677	0.0586	–	0.0529	0.0758	0.068	–	0.0829	0.0449
T30M	0.0719	–	0.0725	0.0978	0.0907	0.0927	0.0858	–	–	–	0.0671	0.0685	–	0.0861	–	0.0797	–	0.0902	0.057
T31M	0.0766	–	0.0671	0.0795	–	–	0.0728	0.115	0.0658	0.0525	0.0608	0.0435	–	–	0.0491	–	–	0.0588	–
Y34D	0.0661	–	–	–	–	–	0.0525	–	0.0624	0.0584	–	–	–	–	0.0875	0.0618	–	–	0.0606
F41E	0.0645	0.0464	–	0.0472	0.0988	–	0.0489	–	0.0613	0.0626	0.0786	0.0418	–	–	–	0.0565	–	–	0.0425
F41Y	0.0529	0.0836	0.0614	0.0702	–	0.0821	0.0711	–	0.0662	0.0587	0.0726	0.0453	0.0548	0.0789	0.085	0.0697	–	0.0779	–
K46G	0.0514	0.0669	0.057	0.0664	–	0.0807	0.07	0.0704	–	0.0765	–	0.06	–	0.093	0.0739	0.0633	0.0396	0.0576	0.0522
F49L	0.106	–	–	0.0673	0.0401	–	0.061	–	0.0713	0.063	–	–	–	–	–	0.0641	0.0454	0.0703	–
F49N	0.0783	0.058	0.0613	–	0.0667	–	0.0639	–	0.0584	–	–	–	0.061	0.048	0.057	0.0532	–	0.0553	0.0246
F49T	0.0502	0.0532	–	0.0614	–	0.065	0.0626	–	–	–	0.0598	0.0645	0.0627	0.075	0.0621	0.0744	–	0.0655	0.04
R50A	0.0747	–	0.0593	0.0917	0.0665	0.0774	0.0783	–	0.067	0.0561	0.0783	0.0522	–	–	0.0707	0.062	–	0.0576	0.0769
